Results on 99 molecules are retold here after publication PMC6919601, “Identification of Plasmodium dipeptidyl aminopeptidase allosteric inhibitors by high throughput screening” (PLoS ONE, 2019).

“And” between values parts separate entries of the source, which are not always exact repeats. Identical values can stand only once. The campaign covered roughly 110,000 compounds. About 230 (0.21%) showed an effect of 50% or more. The list shows a part of the results.
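Further: 30 min substrate incubation versus DMSO and 10 µM JCP410 controls.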

Sequence of DPAP1 (Q8IIJ9 whole entry, looked up): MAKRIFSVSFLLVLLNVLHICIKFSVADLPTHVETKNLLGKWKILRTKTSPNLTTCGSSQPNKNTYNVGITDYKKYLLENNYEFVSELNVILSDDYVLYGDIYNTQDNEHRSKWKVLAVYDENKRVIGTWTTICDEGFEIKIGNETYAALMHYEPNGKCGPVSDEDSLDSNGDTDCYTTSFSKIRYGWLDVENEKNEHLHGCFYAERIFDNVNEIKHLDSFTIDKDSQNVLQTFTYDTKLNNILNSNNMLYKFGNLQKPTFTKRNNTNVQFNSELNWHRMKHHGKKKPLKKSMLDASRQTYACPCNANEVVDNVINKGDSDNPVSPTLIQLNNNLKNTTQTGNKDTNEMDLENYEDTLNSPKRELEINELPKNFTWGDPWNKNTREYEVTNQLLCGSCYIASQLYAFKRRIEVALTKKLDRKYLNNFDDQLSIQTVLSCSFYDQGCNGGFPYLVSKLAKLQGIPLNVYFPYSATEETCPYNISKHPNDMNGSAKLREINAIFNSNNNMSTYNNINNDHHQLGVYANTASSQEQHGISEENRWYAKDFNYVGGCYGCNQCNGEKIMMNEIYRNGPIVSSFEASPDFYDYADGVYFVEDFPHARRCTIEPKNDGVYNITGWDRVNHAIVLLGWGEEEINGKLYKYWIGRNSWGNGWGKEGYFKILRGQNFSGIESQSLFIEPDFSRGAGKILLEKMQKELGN

This assay addresses DPAP1 (Plasmodium falciparum, UniProt Q8IIJ9). The assay can be described thus: primary screen, percent inhibition; read by cleavage of a fluorogenic dipeptide substrate; higher = more effect of the substance. The arrangement: species or system P. falciparum D10 trophozoite lysates; single well.
`CCc1ccc(CNC(=O)C2CCCN(S(=O)(=O)N3CCOCC3)C2)cc1` (stereo not drawn): the “% Inhibition @ 10 uM” value is 0.0882%. On to `CC(C(=O)c1ccccc1)n1cnc2ccccc2c1=O` (stereo not drawn), for which the “% Inhibition @ 10 uM” value is on record as -4.82%.

`O=C(O)CN1C(=O)C(O)=C(C(=O)c2ccc(Cl)cc2)C1c1ccccc1` (stereo not drawn): the “% Inhibition @ 10 uM” value worked out at 2.75%. Regarding `Brc1ccc(C2=CC(c3ccc(Br)cc3)n3ncnc3N2)cc1` (stereo not drawn), the “% Inhibition @ 10 uM” value is listed as -1.37%. As to `CCOC(=O)c1c(N)sc2c1CC1C(=O)N(C3CCCCC3)C(=O)C1C2` (stereo not drawn), the “% Inhibition @ 10 uM” value amounted to 6.63%. In the case of `CSc1ncc(CNCc2ccc3c(c2)OCO3)c(N)n1` it was 0.324%. In the case of `CCN1C2=C(C(=O)CCC2)C(c2cc(Br)ccc2OCC(=O)O)C2=C1CCCC2=O` it was -7.18%.

For `Nc1cccc(NC(=O)c2cccc(N)c2)c1`, the “% Inhibition @ 10 uM” value is reported as -1.45%.

With `CC1CCCCC1NC(=O)c1ccc(CS(=O)(=O)c2cccc(C(F)(F)F)c2)o1` (stereo not drawn), the “% Inhibition @ 10 uM” value is recorded as -3.09%. With `O=c1[nH]c(=O)n(Cc2ccccc2)cc1F`, the “% Inhibition @ 10 uM” value worked out at 3.61%. With `Cc1nn(C(C)C(=O)NCCCN2CCCC2=O)c(=O)c2c1sc1ccccc12` (stereo not drawn) the figure was -2.13%; with `C=CCOc1cccc(C2C(C(=O)c3cccs3)=C(O)C(=O)N2Cc2cccnc2)c1` (stereo not drawn), -12.2%; with `CC(C)(C)NC(=O)CSc1nsc(SCC(=O)NC(C)(C)C)c1C#N`, -3.26%. For `CN(c1ccc(C(=O)Nc2ccc(F)cc2F)cc1)S(C)(=O)=O`, the “% Inhibition @ 10 uM” value was -11.4%. In the case of `O=C(Nc1ccc2ccccc2c1)c1onc2c1CCCC2` it was -7.4%; in that of `CCCCn1c(N)c(S(=O)(=O)c2ccccc2)c2nc3ccccc3nc21`, 7.66%; in that of `CCc1nc2ccccc2c(NC(=O)CN(CC)CC)c1C`, 0.266%. Consider `COc1ccc2c(CNCc3ccc(OC(C)C)cc3)c(C(=O)O)n(Cc3ccc(F)cc3)c2c1`, for which the “% Inhibition @ 10 uM” value turned out to be 2.33%. In the case of `CN1C(=O)/C(=C2/Sc3ccccc3N2C)S/C1=N\c1ccc(O)cc1` it was 0.52%. With `CCOc1ccc(C(=O)Nc2cccc(Cl)c2C)cc1`, the “% Inhibition @ 10 uM” value is 4%.

As for `COc1ccc(N(C(C)C(=O)Nc2ccccc2Cl)S(C)(=O)=O)cc1` (stereo not drawn), the “% Inhibition @ 10 uM” value is reported as -2.44%.

For `Cc1oc(-c2ccccc2F)nc1CN1CCC(C(=O)NCc2ccccc2Cl)CC1`, the “% Inhibition @ 10 uM” value is recorded as -1.05%.

As to `O=C(NCCCCNC(=O)c1cnccn1)c1cnccn1`, the “% Inhibition @ 10 uM” value stood at 2.32%. With `O=C(O)C1CC(=O)N(Cc2ccccc2)/C(=N/c2ccc(F)cc2)S1` (stereo not drawn) the figure was 1.28%.

Regarding `Cc1n[nH]c(C)c1CCCCCCOc1ccc(C(C)(C)C)cc1`, the “% Inhibition @ 10 uM” value is -8.01%. On to `Cc1ccc(CSCC(=O)Nc2ccccc2)cc1`, for which the “% Inhibition @ 10 uM” value was -4.67%. In the case of `N#CC1=C2SCC(O)(c3ccccc3)N2C(=O)CC1c1cccs1` (stereo not drawn) it was -4.74%. On to `Cc1cc(C(F)(F)F)nc(NC(=O)NC(=O)c2cccc(C(F)(F)F)c2)n1`, for which the “% Inhibition @ 10 uM” value is -11%. With `CCOC(=O)c1c(NC(=O)c2ccc3c(c2)OCO3)sc(C(=O)NC2CCCCC2)c1C` the figure was -2.98%; with `COC(=O)C1C(=O)N(C(C)=O)CC1c1ccccc1` (stereo not drawn), 3.28%. With `CC(=O)c1cc(-c2ccccc2)n(CCC(=O)Nc2nc3ccc(C)cc3s2)c1C` the figure was 2.87%; with `C#CCNC(=O)C1CCN(c2cnccn2)CC1`, -2.71%; with `Cc1nc(C(Cl)(Cl)Cl)nc2nccc(O)c12`, 3.25%.

As for `Cc1ccc(CN(CC(=O)N2CCC(C)CC2)S(=O)(=O)c2ccc(Br)cc2)cc1`, the “% Inhibition @ 10 uM” value is recorded as -4.33%. As for `CCOc1ccccc1N1CCN(CCC2=C(C)CCCC2(C)C)CC1`, the “% Inhibition @ 10 uM” value is -5.31%.

With `CCN(CC)CCNC(=O)Cn1c(C)nc2ccccc21`, the “% Inhibition @ 10 uM” value is listed as -3.26%. As to `COc1cc(CN2CCN(Cc3ccc(Br)cc3)CC2)cc(OC)c1`, the “% Inhibition @ 10 uM” value is recorded as 7.06%. Turning to `O=C(NCc1ccco1)C1CCN(c2nc3ccccc3[nH]2)CC1`, the “% Inhibition @ 10 uM” value is listed as -2.18%. With `CC(NCC(O)c1ccc([N+](=O)[O-])cc1)C12CC3CC(CC(C3)C1)C2` (stereo not drawn) the figure was -2.36%; with `O=C(NC1CCCC1)c1cccc(OCc2ccccc2)c1`, -1.82%; with `Cn1c(C(=O)NCCc2c[nH]c3ccccc23)cc2c(=O)n3ccccc3nc21`, -3.73%. `O=c1oc(-c2ccc(F)cc2)nc2sc3c(c12)CCCC3`: the “% Inhibition @ 10 uM” value worked out at 5.03%. With `Cc1ccc(CSc2nc3ccncc3n2Cc2ccc(C(=O)NCCN(C)C)cc2)cc1` the figure was -0.23%; with `CCCCCC(=O)Nc1cccc(-c2nc3ncccc3o2)c1`, 0.121%; with `C=C(C)CN(CC)Cc1c(C)n(C)n(-c2ccccc2)c1=O`, 1.08%.

With `COc1ccc(C(=O)Nc2ccc(C)cc2Br)c(OC)c1`, the “% Inhibition @ 10 uM” value was -3.45%. Turning to `O=c1cccc2n1C[C@H]1C[C@@H]2CN(Cc2ccc([N+](=O)[O-])cc2)C1`, the “% Inhibition @ 10 uM” value is recorded as -10.2%. In the case of `CC1(C)COC2(OC1)C(=O)N(CN1CCOCC1)c1ccccc12` it was 1.61%.

Take `CCOc1ccc(C(=O)Nc2c(C(=O)N3CCC(N4CCCCC4)CC3)oc3ccccc23)cc1`: the “% Inhibition @ 10 uM” value is given as -1.79%.

As for `O=C(c1cccc(C(F)(F)F)c1)n1nnc2ccccc21`, the “% Inhibition @ 10 uM” value was found to be 8.74%. With `COc1c(-c2ccccc2)oc2cc(O)cc(O)c2c1=O` the figure was 4.7% and -3.33%; with `COc1ccccc1CN1CCN(Cc2ccccc2)CC1`, -3.56%; with `O=C(Nc1cccc2ccccc12)c1ccccc1C(=O)N(c1ccccc1)c1ccccc1`, -8.49%. Take `CS(=O)(=O)N(Cc1ccc(Cl)cc1)c1ccc(C(=O)Nc2ccc(CC#N)cc2)cc1`: the “% Inhibition @ 10 uM” value is given as -10.2%. In the case of `COc1ccc(NCc2ccccc2)cc1` it was -2.66%; in that of `Cc1ccccc1-c1noc(-c2nnn(-c3ccc(Br)cc3F)c2N)n1`, 1.13%; in that of `C=CCNC(=O)CCCOc1ccc(Cl)cc1Cl`, -2.02%. With `O=C(N/C(=C\c1ccc(Cl)cc1)C(=O)N1CCCCC1)c1ccco1` the figure was -3.26%. With `Cc1ccc(CCNS(=O)(=O)c2ccc(-c3ccc(O)nn3)s2)cc1` the figure was -0.349%; with `CCN(CC)C(=O)c1ccc(/N=C/c2c(C)nn(-c3ccc(C)c(C)c3)c2O)cc1`, -0.736%. In the case of `CCc1cc2c(cc3c(=O)n(CC(=O)NCc4ccc(C)cc4)nc(CC)n32)s1`, the “% Inhibition @ 10 uM” value is -5.32%. In the case of `Cc1nc2ccc(S(=O)(=O)N(C)CC(=O)NCc3ccc4c(c3)OCO4)cc2s1` it was -7.8%. With `Cc1c(CCN)c2ccccc2n1-c1ccccc1` the figure was -10.8%; with `COc1ccc(C2NC(=O)NC(C)=C2C(=O)Nc2ccc(C)cc2)cc1` (stereo not drawn), 0.205%; with `COc1ccc(C(=O)N(Cc2ccc(C(C)C)cc2)Cc2ccco2)cc1`, 3.69%. In the case of `COc1cc(Br)c(Br)c(/C=C2/SC(=O)NC2=O)c1O` it was 26.8%; in that of `CCOc1cc(C2C(C#N)=C(N)Oc3[nH]nc(-c4ccc5c(c4)OCO5)c32)cc(Br)c1O` (stereo not drawn), -4.6%. On to `CC(C)C[C@H](NC(=O)N1CCN(C(C)(C)C)CC1)C(=O)NCC#N`, for which the “% Inhibition @ 10 uM” value amounted to 1.35%. With `CCC1CCC(N2CCCC(O)C2)CC1` (stereo not drawn) the figure was -1.21%; with `CCOc1ccc(/C=C2\CS/C(=C\c3ccc(OCC)cc3)C2=O)cc1`, -1.29%; with `COc1ccc(NC(=O)C2CC3CCC2C3)c(OC)c1` (stereo not drawn), -1.61%. With `O=C(CN1CCCN(Cc2ccccc2)S1(=O)=O)NCc1ccco1` the figure was -4.36%. With `Cc1ccc2c(c1)-c1c(cnn1CC(=O)Nc1ccc(Cl)cn1)CO2` the figure was -6.77%; with `O=C1C=C(Nc2ccc(O)cc2)C(=O)c2ccccc21`, 7.96%; with `CCOc1ccc2nc(SCC(=O)Nc3ccc(OC)cc3)c(C#N)cc2c1`, 2.84%. On to `O=C1CSC(c2ccccc2[N+](=O)[O-])N1Cc1ccccc1` (stereo not drawn), for which the “% Inhibition @ 10 uM” value is reported as -0.771%. In the case of `COc1ccccc1C(=O)NC(C)c1cc(C)ccc1C` (stereo not drawn) it was 1.67%.

On to `COc1ccc(NC(=O)C(C)NS(=O)(=O)c2ccc(C)cc2)cc1OC` (stereo not drawn), for which the “% Inhibition @ 10 uM” value is reported as -1.61%.

As for `C/C(=C\c1ccccc1)CN(CCO)Cc1ccccc1`, the “% Inhibition @ 10 uM” value is -11.4%.

Consider `CC1CCN(c2c(NCc3ccc(C(=O)NCCc4ccc(Cl)cc4)cc3)c(=O)c2=O)CC1`, for which the “% Inhibition @ 10 uM” value is -0.522%. With `COc1ccc(C2=NS(=O)(=O)N(C)C(C(=O)NC(C)(C)CO)=C2)cc1`, the “% Inhibition @ 10 uM” value was determined as 5.48%. In the case of `CCc1cc2c(cc3c(=O)n(CC(=O)NCc4ccc(C)cc4)ncn32)s1` it was 1.68%. In the case of `COc1ccc(CC[N+]2=NO/C(=N/C(C)=O)C2)cc1OC` it was -9.5%; in that of `COc1cc(-c2cc(C(F)(F)F)n3ncc(C(=O)NCC(C)C)c3n2)cc(OC)c1OC`, 1.72%; in that of `COc1ccc(/C=N/O)cc1[N+](=O)[O-]`, 0.266%.

Regarding `Cc1ccc(S(=O)(=O)N2CCC(Oc3cccc(C(F)(F)F)c3)CC2)cc1`, the “% Inhibition @ 10 uM” value turned out to be 3.88%. Take `CCSc1cc(N2CCN(CC)CC2)nc(-c2ccc(OC)cc2)n1`: the “% Inhibition @ 10 uM” value is listed as -3.18%. For `CC1(C)CC(=O)C2=C(C1)Oc1nc(N)c(C#N)c(N)c1C2c1cccc(Br)c1` (stereo not drawn), the “% Inhibition @ 10 uM” value is on record as 6.31%. In the case of `CCCC(=O)N1CCN(c2cc(N3CCC(C)CC3)c(F)cc2[N+](=O)[O-])CC1`, the “% Inhibition @ 10 uM” value is -1.32%.

Regarding `CC(=O)c1ccc(Nc2nc(-c3ccccc3O)nc3ccccc23)cc1`, the “% Inhibition @ 10 uM” value is 2.65%. With `Cn1nc(-c2ccccc2F)c2cc(C(=O)NC3CCCCC3)sc21` the figure was 2%. With `O=C(CCC1CCCC1)N1CCN(C(=O)c2cccnc2)CC1` the figure was -1.32%; with `CC(=O)Nc1ccc(C(=O)Nc2cc(Cl)ccc2C)cc1`, -2.99%; with `COCC(=O)c1[nH]c2ccccc2c1C`, -5.6%.

With `O=C(Nc1ccc(Cl)c(Cl)c1)NC(CC(=O)c1ccc([N+](=O)[O-])cc1)C(Cl)(Cl)Cl` (stereo not drawn), the “% Inhibition @ 10 uM” value is -2.18%. `O=C(Nc1cccc(Cl)c1Cl)c1cccc(Br)c1`: the “% Inhibition @ 10 uM” value is on record as 3.25%. With `O=C(Cn1ncn2cccc2c1=O)N1CCc2ccccc2C1` the figure was 3.3%; with `CC(=C\c1ccccc1)/C=C1/SC(=O)N(CC(=O)N2CCOCC2)C1=O`, 10.6%; with `COc1ccc(CNC(=O)C2C3C(=O)N(Cc4ccccc4)CC34C=CC2(C)O4)cc1` (stereo not drawn), -3.94%.
